In PubChem BioAssay AID1159614 (National Center for Advancing Translational Sciences (NCATS), 2016):
Screen size: about 45,000 compounds; about 65 (0.1%) were called active. Calls follow the shape of the dose curve; as a rule, active = well fitted activation curve with a large enough effect; inconclusive = small, poorly fitted or top-dose-only effect; inactive = no such curve, though single readings can be large or run the other way. This is one part of the list.

These compounds were tested against Galactocerebrosidase (Homo sapiens) (UniProt P54803) (assay: A Novel Cell-Based Assay to Identify Small Molecules for B -Galactocerebrosidase). Conditions: 145M-Twi-hGALC-G270D cells (Twitcher mouse brain line with human GALC G270D), HMU-beta-Gal fluorescence, 48 h; series mostly up to 57.5 µM; activation: at the top concentration.
How it was run: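 Mutant human GALC (G270D), stably expressed in a Twitcher mouse brain cell line lacking endogenous GALC, is measured in live-treated cells via 6-hexadecanoylamino-4-methylumbelliferyl-β-galactoside hydrolysis (0.1 mM final, pH 5.2) with fluorescent detection.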
Also: 0% is about no effect; nearly all actives have a fitted effect of over 65% in size.

Chain of UniProt P54803 (P54803 whole entry, looked up): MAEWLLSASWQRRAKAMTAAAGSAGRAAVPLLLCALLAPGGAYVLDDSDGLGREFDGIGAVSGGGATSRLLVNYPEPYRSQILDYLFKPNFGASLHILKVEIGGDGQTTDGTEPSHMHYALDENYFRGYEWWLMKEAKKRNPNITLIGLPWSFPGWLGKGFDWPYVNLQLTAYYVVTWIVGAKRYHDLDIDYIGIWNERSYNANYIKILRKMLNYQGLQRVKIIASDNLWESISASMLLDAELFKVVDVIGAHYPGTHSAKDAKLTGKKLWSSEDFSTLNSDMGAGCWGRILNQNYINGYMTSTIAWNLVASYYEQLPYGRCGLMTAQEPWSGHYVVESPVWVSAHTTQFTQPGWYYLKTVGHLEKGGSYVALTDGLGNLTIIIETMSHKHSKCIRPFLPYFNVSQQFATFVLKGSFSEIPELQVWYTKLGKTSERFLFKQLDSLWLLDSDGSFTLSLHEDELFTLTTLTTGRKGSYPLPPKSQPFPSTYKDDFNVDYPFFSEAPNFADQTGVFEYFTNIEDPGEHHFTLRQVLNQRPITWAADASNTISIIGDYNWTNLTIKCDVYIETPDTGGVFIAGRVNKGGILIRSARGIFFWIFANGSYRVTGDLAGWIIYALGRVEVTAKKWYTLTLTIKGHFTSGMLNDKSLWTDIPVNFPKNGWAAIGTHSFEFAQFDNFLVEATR

activation, inactive:
CCC(Cc1ccccc1)NC(=O)Cn1nc(C)n2c(cc3occc32)c1=O (stereo not drawn) -10.7%, Cc1ccc(-n2nc3c(=O)n(C(C)C(=O)NCc4ccc(OC(C)C)cc4)nc(C)c3c2C)cc1 (stereo not drawn) -19.2%, COc1ccc2c(CNCc3cccs3)c(C(=O)O)n(Cc3ccc(F)cc3)c2c1 -6.64%, Cc1ccc2c(CNC3CCCCC3)c(C(=O)O)n(Cc3ccc(F)cc3)c2c1 -16.8%, O=C(Cn1c(SCc2ccc(F)cc2)nc2cccnc21)Nc1ccccc1F 1.86%, Cc1ccc2nc(COc3cccc(NC(=O)Nc4ccc(C)c(Cl)c4)c3)cc(=O)n2c1 -0.268%, COCCNC(=O)c1ccc2c(c1)N(Cc1cc(C)ccc1C)C(=O)c1ccccc1S2=O (stereo not drawn) -10.4%, CCCS(=O)(=O)N1CC(=O)N(c2cccc(Cl)c2)C(C)(C(=O)NC2CCCCC2)C1 (stereo not drawn) 2.54%, CC(=O)c1cccc(NC(=O)c2sc(-n3nc(C)c(Cc4ccccc4)c3C)nc2C)c1 -16.9%, Cc1cc(=O)[nH]c2nnc(SCc3ccc(Cl)cc3Cl)n12 0.24%, CCOc1ccccc1CNC(=O)c1cc2c(=O)n(Cc3cccnc3)ccc2nc1C -17.5%, O=C(Nc1ccc(F)c(Cl)c1)c1ccc2c(Cl)c3c(nc2c1)CCCC3 6.32%, COc1cccc2cc(-c3nc(-c4ccccc4F)no3)c(=O)oc12 7.41%, CCc1ccccc1Nc1nn2c(=O)c3ccc(C(=O)NCCC4=CCCCC4)cc3nc2s1 -25%, CCCC(=O)Nc1cccc(OCc2cc(=O)n3cccc(C)c3n2)c1 1.79%, Cc1cc(=O)n2nc(N(C)CC(=O)NCc3ccccc3C)sc2n1 -15.5%, O=C(NCCc1ccccc1)c1cc(Nc2ccccc2)nc2ccccc12 -14.8%, Cc1ccccc1-c1noc(CSc2nc3ccccc3[nH]2)n1 -12%, COCCCn1c(SCc2cccc(Cl)c2)nc2c(sc3ccccc32)c1=O 2.2%, CCOC(=O)C1CCCN(C(=O)c2ccc3c(c2)sc2nc(-c4cccc(OC)c4)cn23)C1 (stereo not drawn) -16.1%, CCOCCc1nn2c(=O)cc(COC(=O)c3ccccc3OC)nc2s1 -3.26%, COc1ccc(CCCc2nnc(SCC(=O)Nc3cccc(F)c3C)o2)cc1 2.06%, CCn1c(C)c(C)c2cc(C(=O)NCC(C)c3ccccc3)ccc21 (stereo not drawn) -21.1%, COc1ccc2c(c1)c1c(c(=O)n(Cc3ccccc3)c(=O)n1CC(=O)Nc1ccccc1OC)n2C -6.78%, CCOc1ccc(Nc2nc(-c3cccc(Cl)c3)c3c(n2)-c2ccccc2OC3)cc1 0.66%, COc1ccc(N(CC(=O)Nc2cccc(Cl)c2)S(=O)(=O)c2c(C)[nH]c(=O)[nH]c2=O)cc1 2.36%, CCOCCc1nnc(NC(=O)C(=O)c2cc(C)n(-c3ccc(C)cc3C)c2C)s1 -8.81%, O=C(Nc1nc2c(F)cc(F)cc2s1)c1ccc(S(=O)(=O)N2CCc3ccccc32)cc1 -33.9%, COc1ccc(N2CCN(CCCNC(=O)C3COc4ccccc4C3)CC2)cc1 (stereo not drawn) -36.3%, O=C(c1ccc2c(Cl)c3c(nc2c1)CCCC3)N1CCN(c2ccc(Cl)cc2)CC1 -7.7%, C[C@@H]1CCC[C@H](C)N1 -10.4%, CCOc1ccc(-n2c(=O)c3c4c(sc3n(CC(=O)NC(C)CC)c2=O)CCCCC4)cc1 (stereo not drawn) 1.27%, Oc1cccc(O)c1 -9.3%, CCN1C(C(=O)c2ccccc2)=C(OC(=O)COc2ccc(C)cc2)c2ccccc2S1(=O)=O 0.0233%, C[C@@H](O[C@H]1OCCN(Cc2n[nH]c(=O)[nH]2)[C@H]1c1ccc(F)cc1)c1cc(C(F)(F)F)cc(C(F)(F)F)c1 -10.1%, O=C(Nc1ccc(F)cc1)Nc1csc2c1CCCC2 -11.6%, Cc1ccc(CNC(=O)CSc2nc3c(sc4ccccc43)c(=O)n2CCCC(=O)NCCO)cc1 -18.1%, O=C(Cc1ccc(-c2ccccc2)cc1)NCCS(=O)(=O)N1CCN(c2ccc(F)cc2)CC1 -13.9%, Cn1ncc2c(N3CCN(c4ccc(F)cc4)CC3)ncnc21 -0.775%, COc1cc(-c2nc3sccn3c2Nc2c(C)cccc2C)ccc1O -13.4%, Cc1cc(O)cc(C)c1Cl -17.8%, CCOc1ccc(CCn2c3c(c(=O)[nH]c2=O)C(NC(=O)c2cccc(F)c2)(C(F)(F)F)C(=O)N3)cc1OCC (stereo not drawn) -8.71%, Cc1c(CCNC(=O)c2c(F)cccc2F)sc2nc(-c3ccc(F)cc3)nn12 -17.8%, CC(=O)N1CCCC1c1nc2ccccc2n1Cc1ccccc1Cl (stereo not drawn) 2.91%, O=C1Cc2cc(S(=O)(=O)N3CCN(c4cccc(Cl)c4)CC3)ccc2N1 -5%, CCn1c(C(=O)NCCc2ccc(S(N)(=O)=O)cc2)cc2sc(Cl)cc21 -7.65%, CC(=O)N1CCCc2ccc(NS(=O)(=O)c3cccc(Cl)c3)cc21 -8.93%, CCCCN(CCCC)CC(O)c1cc(Cl)cc2c1-c1ccc(Cl)cc1/C2=C/c1ccc(Cl)cc1 (stereo not drawn) -13.2%, COc1cccc(CSc2nc3ccncc3n2CC(=O)Nc2ccc(OC)c(OC)c2OC)c1 -14.5%, CCOC(=O)c1cnc2c(ccc3ccccc32)c1Nc1ccc(C(C)=O)cc1 -6.71%, Cc1cccc(C)c1-n1ncc(C(=O)NCCCN2CCC(C)CC2)c1C1CCN(C(=O)OC(C)(C)C)CC1 20.9%, Cc1cc(Nc2ccc(Br)cc2)nc(C)n1 -5.79%, Cc1cccc(OCc2nc(CC(=O)Nc3ccc(Cl)cc3)cs2)c1 -10.2%, CCC1CN(C(=O)N2CCC(C(=O)NCCc3ccc(OC)cc3OC)CC2)c2cc(C)ccc2O1 (stereo not drawn) -27.5%, Cc1cc(C)nc(-n2nc(C)c3c2N(Cc2ccccc2F)C(=O)CC3c2ccc(Cl)cc2)n1 (stereo not drawn) -10.2%, COc1cccc(NC(=O)CCN2C(=O)c3ccccc3Sc3ncccc32)c1 4.19%, CCOC(=O)c1sc2ccccc2c1S(=O)(=O)NCc1ccccc1OC -5.8%, CCc1ccccc1NC(=O)C1CCN(S(=O)(=O)c2cn(C)cn2)CC1 -8.26%, O=S(=O)(c1ccc(Cl)cc1)c1nc(-c2cccs2)oc1N1CCCCC1 -20.5%, CCc1cc2c(cc3c(=O)n(CC(=O)NC(C)c4ccccc4)ncn32)s1 (stereo not drawn) -1.37%, COc1ccccc1CNC(=O)Cc1csc2nc(-c3ccc(F)cc3)cn12 -15.1%, Cc1cc2c(s1)Nc1ccccc1N=C2N1CCN(C)CC1 -7.92%, Cc1ccccc1C(=O)Nc1cc(C)c(O)c(-c2nc3ccccc3o2)c1 -18.5%, CCC1CN(C(=O)Nc2ccccc2F)c2cc(C)ccc2O1 (stereo not drawn) -11%, CCOc1ccc(-c2nc(Cn3c(=O)cc(C)c4c(C)nn(-c5ccccc5)c43)c(C)o2)cc1 4.01%, CCCCCCn1nnc2sc(-c3ccccc3)cc2c1=O -15.4%, CC1CCN(CC2CCN(C(=O)NCc3ccccc3)CC2)CC1 -7.73%, COc1ccc(CNC(=O)CCNS(=O)(=O)c2ccc3c(c2)oc(=O)n3C)cc1 -26.3%, COc1ccc(C2CC(=O)c3cc(-c4nc(-c5cccc([N+](=O)[O-])c5)cs4)c(=O)n(-c4ccccc4)c3C2)cc1 (stereo not drawn) -4.38%, CCn1cc(C(=O)N(C)Cc2ccccc2)c(=O)c2cc(S(=O)(=O)N3CCc4ccccc4C3)ccc21 -8.3%, CCN1c2ccccc2-c2nc(SCC(=O)Nc3cccc(C)c3C)ncc2S1(=O)=O -14.5%, COc1cc(C)ccc1OCCSc1nc2ccc(NC(=O)c3ccco3)cc2s1 -39.1%, CCc1ccc(NC(=O)CSc2ccnc(=O)[nH]2)cc1 -19.3%, Cc1nn(C)c(C)c1S(=O)(=O)N(CC(=O)NCCc1ccccc1)c1ccc(C(C)C)cc1 -11.1%, O=C(NCCc1ccccc1)c1ccc2c(c1)N(Cc1ccc(Cl)cc1)C(=O)CS2 -17.6%, O=C(CSCc1ccc(F)cc1)N1CCN(c2ccccc2F)CC1 -1.58%, Cc1cc2c(cc1S(=O)(=O)NCc1ccc(F)cc1)n(C)c(=O)c(=O)n2C -4.27%, COc1ccc(NC(=O)c2ccco2)cc1NC(=O)COc1ccc(C)c(C)c1 -1.02%, Cc1cccc(N2C(=O)CC(c3ccc(F)cc3)C3=C2COC3=O)c1 (stereo not drawn) -3.27%, CCCCNC(=O)c1nn(C)c2c1CSc1ccccc1-2 -6.41%, Cc1ccc(C(=O)c2cn(Cc3cccc(Cl)c3)c3nc(C)ccc3c2=O)cc1 -11.2%, Cc1cn2c(=O)cc(COC(=O)c3ccc(NC(=O)COc4ccccc4C)cc3)nc2s1 -3.74%, CCOC(=O)c1cc(-c2ccccc2)n(-c2cccc(C(=O)Nc3cccc(SC)c3)c2)c1C -5.44%, Cc1ccc(-c2nn3c(-c4ccccc4C)nnc3c3ccccc23)cc1 -15.1%, CCC(=O)Oc1ccc2c(c1)CC[C@@H]1[C@@H]2CC[C@@]2(C)[C@H]1C[C@@H](OC(=O)CC)[C@@H]2OC(=O)CC -19.7%, COc1ccc(CCC(=O)NCCc2csc(-c3ccc(F)cc3)n2)cc1 -27.7%, O=C(Cn1ncc2c([nH]c3ccccc32)c1=O)NCCCN1CCN(c2ccc(F)cc2)CC1 -14.3%, CCc1ccccc1NC(=O)N1CCOc2ccccc21 -20%, COc1cc(NC(=O)CC2C(=O)N(c3ccccc3)C(=O)N2Cc2ccc(F)cc2)cc(OC)c1 (stereo not drawn) -10.9%, COc1ccc(OC)c(NC(=O)CSc2nc(=O)n(CCN(C)C)c3c2CCC3)c1 -17.5%, CC1CCc2c(sc(NC(=O)Cc3ccccc3)c2C(=O)Nc2ccc(Cl)cc2)C1 (stereo not drawn) -23%, CCc1ccc(-n2c(=O)c3c4c(sc3n(Cc3ccccc3C#N)c2=O)CCCC4)cc1 -10.9%, CCCn1c2ccccc2c2cnn(CC(=O)Nc3cc(C)c(Cl)cc3OC)c(=O)c21 6.06%, CC(=O)Nc1ccc(NC(=O)c2oc3c(c2C)-c2nn(Cc4ccccc4Cl)cc2CC3)cc1 -16.4%, CCCCC(=O)Nc1ccc2nc(SCC(=O)N3CCc4ccccc43)sc2c1 -18.7%, CCc1ccc2nc(N(Cc3cccnc3)C(=O)c3ccc(C#N)cc3)sc2c1 -19.3%, Cc1ccc(N2CCN(C(=O)c3nn(C)c4c3CS(=O)(=O)c3ccccc3-4)CC2)c(C)c1 -18.2%, Cc1ccc(Nc2ccc3cc(S(=O)(=O)N4CCC(C)CC4)ccc3n2)c(Cl)c1 -17.3%
